In publication PMC10036635, “FTD-tau S320F mutation stabilizes local structure and allosterically promotes amyloid motif-dependent aggregation” (Nature Communications, 2023):

How the values were obtained:
[1] = target: the molecule itself; experiment: ThT fluorescence aggregation assay + negative-stain TEM; self-assembly of tauRD into fibrils at 100 µM without inducer; 1x PBS, 2 mM TCEP, 25 µM ThT
[2] = target: the molecule itself; experiment: ThT fluorescence aggregation assay + negative-stain TEM; self-assembly of tauRD into fibrils at 25 µM without inducer; 1x PBS, 2 mM TCEP, 25 µM ThT, 37 °C; TEM of the endpoint
[3] = target: the molecule itself; experiment: ThT fluorescence aggregation assay + negative-stain TEM; self-assembly of tauRD into fibrils at 62.5 µM without inducer; 1x PBS, 2 mM TCEP, 25 µM ThT, 37 °C, 96 h; TEM of the endpoint

| Protein | binding result [1] | also measured |
| --- | --- | --- |
| S320I_I328V tauRD ([…]) (domain or fragment, microtubule-associated protein tau, human, repeat domain, […]; numbers count on: 2N4R tau ([…]); mutations chosen by Rosetta design on the CBD fibril structure; source: E. coli BL21-Gold (DE3), purified (boiling, HiTrap SP HP, Superdex 75)) not shown | binds | – |
| S320V tauRD ([…]) (domain or fragment, microtubule-associated protein tau, human, repeat domain, […]; numbers count on: 2N4R tau ([…]); mutation chosen by Rosetta design on the PiD fibril structure; source: E. coli BL21-Gold (DE3), purified (boiling, HiTrap SP HP, Superdex 75)) not shown | – | binding result [2]: binds |
| S320F tauRD ([…]) (domain or fragment, microtubule-associated protein tau, human, repeat domain, […], FTD-tau mutation S320F; numbers count on: 2N4R tau ([…]); pet28b backbone without the C-terminal His-tag; also called tauRD S320F; source: E. coli BL21-Gold (DE3), purified (boiling, HiTrap SP HP, Superdex 75)) not shown | – | binding result [3]: binds |
| S320I tauRD ([…]) (domain or fragment, microtubule-associated protein tau, human, repeat domain, […]; numbers count on: 2N4R tau ([…]); mutation chosen by Rosetta design on the CBD fibril structure; source: E. coli BL21-Gold (DE3), purified (boiling, HiTrap SP HP, Superdex 75)) not shown | binds | – |
